# Some of the results follow.
# B1: SAOUHSC 00176 (Staphylococcus aureus) (protein)
# chain: MSKILKCITLAVVMLLIVTACGPNRSKEDIDKALNKDNSKDKPNQLTMWVDGDKQMAFYKKITDQYTKKTGIKVKLVNIGQNDQLENISLDAPAGKGPDIFFLAHDNTGSAYLQGLAAEIKLSKDELKGFNKQALKAMNYDNKQLALPAIVETTALFYNKKLVKNAPQTLEEVEANAAKLTDSKKKQYGMLFDAKNFYFNYPFLFGNDDYIFKKNGSEYDIHQLGLNSKHVVKNAERLQKWYDKGYLPKAATHDVMIGLFKEGKVGQFVTGPWNINEYQETFGKDLGVTTLPTDGGKPMKPFLGVRGWYLSEYSKHKYWAKDLMLYITSKDTLQKYTDEMSEITGRVDVKSSNPNLKVFEKQARHAEPMPNIPEMRQVWEPMGNASIFISNGKNPKQALDEATNDITQNIKILHPSQNDKKGD
# Key:
# Test in all cases: glycan array binding signal (z-score within array); higher = stronger binding
# Conditions in all cases: glycan notation: IUPAC condensed, linker removed
# [1] = target: Neu5Ac(a2-3)Gal(b1-3)GlcNAc6S
# Procedure, shortened: (§1)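 Glycan array binding is given as a within-array Z-score, which can be read as non-binding when negative. The arrays, 3228 of them, came from the Consortium for Functional Glycomics database and were retained only where the protein sequence was available. Z-scores were averaged across arrays of the same protein sequence at different concentrations or buffers and across linkers.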
# [2] = target: Neu5Ac(a2-3)Gal(b1-3)[Fuc(a1-4)]GlcNAc
# Procedure, shortened: as §1
# [3] = target: Neu5Ac(a2-3)Gal(b1-3)[Fuc(a1-4)]GlcNAc(b1-3)Gal(b1-3)[Fuc(a1-4)]GlcNAc
# Procedure, shortened: as §1
# [4] = target: Neu5Ac(a2-3)Gal(b1-3)[Fuc(a1-4)]GlcNAc(b1-3)Gal(b1-4)[Fuc(a1-3)]GlcNAc
# Procedure, shortened: as §1
# [5] = target: Neu5Ac(a2-3)Gal(b1-3)[GlcNAc(b1-6)]GalNAc
# Procedure, shortened: as §1
# [6] = target: Neu5Ac(a2-3)Gal(b1-3)[Neu5Ac(a2-6)]GalNAc
# Procedure, shortened: as §1
# [7] = target: Neu5Ac(a2-3)Gal(b1-3)[Neu5Ac(a2-6)]GlcNAc(b1-3)[Fuc(a1-3)[Gal(b1-4)]GlcNAc(b1-6)]Gal(b1-4)Glc
# Procedure, shortened: as §1
# [8] = target: Neu5Ac(a2-3)Gal(b1-3)]Neu5Ac(a2-3)Gal(b1-4)]GlcNAc
# Procedure, shortened: as §1
# [9] = target: Neu5Ac(a2-3)Gal(b1-4)Glc
# Procedure, shortened: as §1
# [10] = target: Neu5Ac(a2-3)Gal(b1-4)GlcNAc
# Procedure, shortened: as §1
# [11] = target: Neu5Ac(a2-3)Gal(b1-4)GlcNAc(b1-2)Man
# Procedure, shortened: as §1
# [12] = target: Neu5Ac(a2-3)Gal(b1-4)GlcNAc(b1-2)Man(a1-3)[GlcNAc(b1-4)][Neu5Ac(a2-3)Gal(b1-4)GlcNAc(b1-2)Man(a1-6)]Man(b1-4)GlcNAc(b1-4)GlcNAc
# Procedure, shortened: as §1
# [13] = target: Neu5Ac(a2-3)Gal(b1-4)GlcNAc(b1-2)Man(a1-3)[Neu5Ac(a2-3)Gal(b1-4)GlcNAc(b1-2)Man(a1-6)]Man(b1-4)GlcNAc(b1-4)GlcNAc
# Procedure, shortened: as §1
# [14] = target: Neu5Ac(a2-3)Gal(b1-4)GlcNAc(b1-2)Man(a1-3)[Neu5Ac(a2-3)Gal(b1-4)GlcNAc(b1-2)Man(a1-6)]Man(b1-4)GlcNAc(b1-4)[Fuc(a1-6)]GlcNAc
# Procedure, shortened: as §1
# [15] = target: Neu5Ac(a2-3)Gal(b1-4)GlcNAc(b1-2)Man(a1-3)[Neu5Ac(a2-6)Gal(b1-4)GlcNAc(b1-2)Man(a1-6)]Man(b1-4)GlcNAc(b1-4)GlcNAc
# Procedure, shortened: as §1
# [16] = target: Neu5Ac(a2-3)Gal(b1-4)GlcNAc(b1-2)[Neu5Ac(a2-3)Gal(b1-4)GlcNAc(b1-4)]Man(a1-3)[GlcNAc(b1-4)][Neu5Ac(a2-3)Gal(b1-4)GlcNAc(b1-2)[Neu5Ac(a2-3)Gal(b1-4)GlcNAc(b1-6)]Man(a1-6)]Man(b1-4)GlcNAc(b1-4)GlcNAc
# Procedure, shortened: as §1
# [17] = target: Neu5Ac(a2-3)Gal(b1-4)GlcNAc(b1-2)[Neu5Ac(a2-3)Gal(b1-4)GlcNAc(b1-4)]Man(a1-3)[GlcNAc(b1-4)][Neu5Ac(a2-3)Gal(b1-4)GlcNAc(b1-4)Man(a1-6)]Man(b1-4)GlcNAc(b1-4)GlcNAc
# Procedure, shortened: as §1
# [18] = target: Neu5Ac(a2-3)Gal(b1-4)GlcNAc(b1-2)[Neu5Ac(a2-3)Gal(b1-4)GlcNAc(b1-6)]Man(a1-6)[Neu5Ac(a2-3)Gal(b1-4)GlcNAc(b1-2)Man(a1-3)][GlcNAc(b1-4)]Man(b1-4)GlcNAc(b1-4)GlcNAc
# Procedure, shortened: as §1
# [19] = target: Neu5Ac(a2-3)Gal(b1-4)GlcNAc(b1-3)Gal
# Procedure, shortened: as §1
# [20] = target: Neu5Ac(a2-3)Gal(b1-4)GlcNAc(b1-3)Gal(b1-3)GlcNAc
# Procedure, shortened: as §1
# [21] = target: Neu5Ac(a2-3)Gal(b1-4)GlcNAc(b1-3)Gal(b1-4)GlcNAc
# Procedure, shortened: as §1
# [22] = target: Neu5Ac(a2-3)Gal(b1-4)GlcNAc(b1-3)Gal(b1-4)GlcNAc(b1-2)Man(a1-3)[Neu5Ac(a2-3)Gal(b1-4)GlcNAc(b1-3)Gal(b1-4)GlcNAc(b1-2)Man(a1-6)]Man(b1-4)GlcNAc(b1-4)GlcNAc
# Procedure, shortened: as §1
# [23] = target: Neu5Ac(a2-3)Gal(b1-4)GlcNAc(b1-3)Gal(b1-4)GlcNAc(b1-3)Gal(b1-4)GlcNAc
# Procedure, shortened: as §1
# [24] = target: Neu5Ac(a2-3)Gal(b1-4)GlcNAc(b1-3)Gal(b1-4)GlcNAc(b1-3)Gal(b1-4)GlcNAc(b1-2)Man(a1-3)[Neu5Ac(a2-3)Gal(b1-4)GlcNAc(b1-3)Gal(b1-4)GlcNAc(b1-3)Gal(b1-4)GlcNAc(b1-2)Man(a1-6)]GalNAc
# Procedure, shortened: as §1
# [25] = target: Neu5Ac(a2-3)Gal(b1-4)GlcNAc(b1-3)Gal(b1-4)GlcNAc(b1-3)GalNAc
# Procedure, shortened: as §1
# [26] = target: Neu5Ac(a2-3)Gal(b1-4)GlcNAc(b1-3)Gal(b1-4)GlcNAc(b1-3)[Neu5Ac(a2-3)Gal(b1-4)GlcNAc(b1-3)Gal(b1-4)GlcNAc(b1-6)]GalNAc
# Procedure, shortened: as §1
# [27] = target: Neu5Ac(a2-3)Gal(b1-4)GlcNAc(b1-3)Gal(b1-4)GlcNAc(b1-6)[Gal(b1-3)]GalNAc
# Procedure, shortened: as §1
# [28] = target: Neu5Ac(a2-3)Gal(b1-4)GlcNAc(b1-3)Gal(b1-4)[Fuc(a1-3)]GlcNAc
# Procedure, shortened: as §1
# [29] = target: Neu5Ac(a2-3)Gal(b1-4)GlcNAc(b1-3)GalNAc
# Procedure, shortened: as §1
# [30] = target: Neu5Ac(a2-3)Gal(b1-4)GlcNAc(b1-3)[Neu5Ac(a2-3)Gal(b1-4)GlcNAc(b1-6)]GalNAc
# Procedure, shortened: as §1
# [31] = target: Neu5Ac(a2-3)Gal(b1-4)GlcNAc(b1-6)GalNAc
# Procedure, shortened: as §1
# [32] = target: Neu5Ac(a2-3)Gal(b1-4)GlcNAc(b1-6)[Gal(b1-3)]GalNAc
# Procedure, shortened: as §1
# [33] = target: Neu5Ac(a2-3)Gal(b1-4)GlcNAc(b1-6)[Neu5Ac(a2-3)Gal(b1-3)]GalNAc
# Procedure, shortened: as §1
# [34] = target: Neu5Ac(a2-3)Gal(b1-4)GlcNAc6S
# Procedure, shortened: as §1
# [35] = target: Neu5Ac(a2-3)Gal(b1-4)[Fuc(a1-3)]GlcNAc
# Procedure, shortened: as §1
# [36] = target: Neu5Ac(a2-3)Gal(b1-4)[Fuc(a1-3)]GlcNAc(b1-2)Man
# Procedure, shortened: as §1
# [37] = target: Neu5Ac(a2-3)Gal(b1-4)[Fuc(a1-3)]GlcNAc(b1-3)Gal
# Procedure, shortened: as §1
# [38] = target: Neu5Ac(a2-3)Gal(b1-4)[Fuc(a1-3)]GlcNAc(b1-3)Gal(b1-4)GlcNAc
# Procedure, shortened: as §1
# [39] = target: Neu5Ac(a2-3)Gal(b1-4)[Fuc(a1-3)]GlcNAc(b1-3)Gal(b1-4)[Fuc(a1-3)]GlcNAc(b1-3)Gal(b1-4)[Fuc(a1-3)]GlcNAc
# Procedure, shortened: as §1
# [40] = target: Neu5Ac(a2-3)Gal(b1-4)[Fuc(a1-3)]GlcNAc(b1-3)GalNAc
# Procedure, shortened: as §1
# [41] = target: Neu5Ac(a2-3)Gal(b1-4)[Fuc(a1-3)]GlcNAc(b1-6)[Gal(b1-3)]GalNAc
# Procedure, shortened: as §1
# [42] = target: Neu5Ac(a2-3)Gal(b1-4)[Fuc(a1-3)]GlcNAc(b1-6)[Neu5Ac(a2-3)Gal(b1-3)]GalNAc
# Procedure, shortened: as §1
# [43] = target: Neu5Ac(a2-3)Gal(b1-4)[Fuc(a1-3)]GlcNAc6S
# Procedure, shortened: as §1
# [44] = target: Neu5Ac(a2-3)Gal6S(b1-4)GlcNAc
# Procedure, shortened: as §1
# [45] = target: Neu5Ac(a2-3)Gal6S(b1-4)[Fuc(a1-3)]GlcNAc
# Procedure, shortened: as §1
binder,measurement,setting,value
B1,glycan array binding signal (z-score),[1],-0.124
same,glycan array binding signal (z-score),[2],-0.157
same,glycan array binding signal (z-score),[3],-0.022
same,glycan array binding signal (z-score),[4],0.023
same,glycan array binding signal (z-score),[5],0.03
same,glycan array binding signal (z-score),[6],-0.11
same,glycan array binding signal (z-score),[7],-0.017
same,glycan array binding signal (z-score),[8],0.023
same,glycan array binding signal (z-score),[9],-0.047
same,glycan array binding signal (z-score),[10],-0.091
same,glycan array binding signal (z-score),[11],0.473
same,glycan array binding signal (z-score),[12],-0.093
same,glycan array binding signal (z-score),[13],-0.12
same,glycan array binding signal (z-score),[14],-0.119
same,glycan array binding signal (z-score),[15],0.006
same,glycan array binding signal (z-score),[16],-0.073
same,glycan array binding signal (z-score),[17],-0.014
same,glycan array binding signal (z-score),[18],-0.068
same,glycan array binding signal (z-score),[19],-0.114
same,glycan array binding signal (z-score),[20],-0.09
same,glycan array binding signal (z-score),[21],0.002
same,glycan array binding signal (z-score),[22],0.122
same,glycan array binding signal (z-score),[23],-0.073
same,glycan array binding signal (z-score),[24],0.214
same,glycan array binding signal (z-score),[25],-0.089
same,glycan array binding signal (z-score),[26],-0.07
same,glycan array binding signal (z-score),[27],-0.09
same,glycan array binding signal (z-score),[28],-0.015
same,glycan array binding signal (z-score),[29],-0.074
same,glycan array binding signal (z-score),[30],-0.085
same,glycan array binding signal (z-score),[31],-0.1
same,glycan array binding signal (z-score),[32],-0.07
same,glycan array binding signal (z-score),[33],-0.113
same,glycan array binding signal (z-score),[34],-0.027
same,glycan array binding signal (z-score),[35],-0.132
same,glycan array binding signal (z-score),[36],-0.059
same,glycan array binding signal (z-score),[37],-0.152
same,glycan array binding signal (z-score),[38],0.011
same,glycan array binding signal (z-score),[39],-0.113
same,glycan array binding signal (z-score),[40],0.054
same,glycan array binding signal (z-score),[41],-0.092
same,glycan array binding signal (z-score),[42],0.049
same,glycan array binding signal (z-score),[43],0.059
same,glycan array binding signal (z-score),[44],-0.173
same,glycan array binding signal (z-score),[45],-0.251
